The supplement of paper PMC3334620
In all, about 33,000 sequences were measured (“E-score (-0.5 to 0.5)”: median about -0.04, highest 2% from about 0.36 on). The list shows a part of the results.

biological target: T1, Hmlalpha2 (UniProt P0CY09); experiment: PBM E-score (8-mer binding enrichment) (E-score (-0.5 to 0.5)); higher = stronger / more preferred TF binding; most listed sequences are background and not binding sites; conditions: protein concentration: 200 nM; construct: GST-full length
T1 sequence: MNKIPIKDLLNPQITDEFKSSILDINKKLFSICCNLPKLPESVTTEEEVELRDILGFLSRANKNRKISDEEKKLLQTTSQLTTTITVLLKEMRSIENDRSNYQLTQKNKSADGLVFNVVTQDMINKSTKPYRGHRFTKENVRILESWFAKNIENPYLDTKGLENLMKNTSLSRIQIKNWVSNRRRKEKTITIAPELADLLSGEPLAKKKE
In short: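 For each ungapped eight-base word taken together with its reverse complement, the Universal PBM Analysis Suite assigned an E-score. Binding data came from GST-tagged yeast transcription factors, applied at about 100-200 nM, on universal all-10-mer Agilent arrays made double-stranded by primer extension. Fluorescent anti-GST marked bound protein, and scans were normalised with masliner.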

Sequence	PBM E-score
ATAGAACG	0.199
TACGCAAA	0.257
ATCATCGA	0.0634
AGTCGAGA	-0.111
AATTAGAC	0.156
ATGACTAG	0.145
ATCCGGCA	-0.184
ATTGGTCA	-0.0597
AGGAGCGA	-0.176
AGTAGTAA	0.188
CGACGGGA	0.0111
AGGGACCG	-0.25
AGATATCG	-0.257
CTCTTGAA	0.0111
CACTGTGA	-0.0701
CTCTCGAC	-0.101
AGCTGATC	-0.122
GCGATTCA	-0.149
GCCCTCTA	-0.28
AGCATAAT	-0.00529
CAGTTACA	0.284
AAAACATG	0.434
GCAGGGCA	-0.113
ACGCTCAG	-0.145
GCAAGAGC	-0.0932

Sequence	PBM E-score
CACATCCG	-0.0158
GAATCCCC	-0.188
ACTCAGTC	-0.17
GCCAGTCA	-0.239
CGATGACG	-0.13
CGGTACAG	0.00847
CCGATCTC	-0.191
AAGGACCT	-0.152
CGGTTAAG	0.114
AGTGAATC	-0.114
AGGTTCAC	-0.0765
AGCGAGCT	0.0336
CGCGTGAG	0.162
GACCGGTA	-0.328
AAACTACT	0.144
GAGTTCGC	-0.169
AGTGTATA	0.114
CAATCTAA	0.00357
GCTAGTAA	0.197
ACTCCAGG	-0.0632
AACGGAGA	-0.13
ATATCGCG	0.079
GAGGAGCC	-0.271
AAAGATGT	0.187
CCTAGCCC	-0.34

Sequence	PBM E-score
CGTTGATC	0.189
CACAGGCA	-0.0087
ACTGTGGC	-0.294
ACGCGTGA	0.285
CATTCACC	-0.0426
CGTGCGTC	0.127
GGCAGTCA	-0.191
CAAGGCTG	-0.109
CCTAAAAG	-0.129
CAGGAAAG	-0.269
CGGCCGGC	-0.25
GGTAACTA	0.201
AACGTACA	0.285
CGCCTTAG	-0.285
CTCCACTC	-0.275
CACAGGGA	-0.0907
CGTTCGGA	-0.228
CAGAAACC	-0.12
AACGCCCA	0.0874
AACGGCTC	-0.151
AGCTGTCA	-0.0794
CAACGTGC	0.195
AGCACCAT	-0.242
CTCCGTCC	-0.304
ATATAGCG	-0.125

Sequence	PBM E-score
AGGTAAAC	0.26
AGCTCTAT	-0.102
CGTGCAAG	0.0107
GAATCCAC	-0.00964
CATATCCG	-0.149
GCGGCTCC	-0.264
AGCACCCG	-0.24
CCGTGGCA	-0.00985
ACGAATAT	0.053
CGCTTAGC	-0.178
GACAGCGA	-0.238
CTTAATTC	0.00494
GGATCACC	-0.146
GTACGACA	0.196
ATCACCCA	-0.222
GGTTATTA	0.137
ACCTATTG	-0.0961
GGAATCCC	-0.235
ACGCATTC	0.156
CACAGATA	-0.0274
GGGGCTTA	-0.354
AGGGACAC	-0.0221
CAGTCTGC	-0.155
ACTTTAGA	-0.0293
AGCGACGC	-0.0871

Sequence	PBM E-score
ACGATAGC	0.0826
AAACACCG	0.196
ACTTCACG	0.0332
ATGACCAC	0.0275
GTGCGGAA	-0.0753
GATTCAAC	0.0589
GGACCATA	-0.143
AAAAGCAT	0.0453
AATTCCGC	-0.0526
ATCGAGGG	-0.255
ACTACTGG	-0.16
CTGTCAGC	-0.29
CGCAACCC	-0.00276
CTTAAACA	0.128
CTAGGGGC	-0.348
GCCAGTAC	-0.0253
CTAGACTA	-0.212
GACTGGAC	-0.23
ATGCCGCG	-0.118
CTTTAGTC	-0.284
GAGGTAGA	-0.0117
CGAATGCC	-0.185
CCTCATCG	-0.115
AATGCACA	0.16
CATCGGAA	0.052

Sequence	PBM E-score
AGCTAATA	0.222
ATCAGGCG	-0.0583
AACCCTTG	-0.0377
ATAACCGC	0.0357
CGTTTAGC	0.119
ATTAGCGG	-0.285
AAATTGAG	-0.0963
ACAGGTCT	-0.11
CATAAACA	0.384
GTGGAAAC	-0.0744
CTAGGTTA	0.0901
GAGTACAC	0.276
AAGTGGTG	-0.117
CAGCCAAA	-0.0144
CGCTTTCC	-0.146
AACCTGCG	-0.0431
TAACGGCA	-0.0141
ACTCATGC	-0.132
ACTCTTAA	-0.0136
ACACTCAC	0.108
CCGAGTCG	-0.216
ATAGACTA	0.126
CCCACTAC	0.14
AAGCAAGT	0.0946
CATCTACA	0.338

Sequence	PBM E-score
ATCCAAGC	-0.203
GACTGGCC	-0.327
CCACGTGC	-0.0212
AAGACTAC	0.0786
GCATCAAA	0.0226
AGACGCAC	-0.0382
AGATCCTA	-0.165
GGCGGCTA	-0.119
CCTCGCCA	-0.335
TTCGAGAA	0.0374
CACCTTGA	-0.0745
ACCCACGC	-0.0679
CCACGTGG	-0.225
GGGTCATA	-0.0564
AACACGGG	0.387
CCGTAAGC	-0.127
ACAAATCC	-0.129
GTGGTCGA	-0.156
GAGGACTC	-0.258
CCGTTTGC	-0.235
AACTCCTA	-0.146
AGATATTG	-0.137
